Values marked as one replicate rest on one cluster of the flow cell; about a third of the high ones do not repeat.
Test system: ATP
Assay: switch fluorescence ratio, 500 uM ATP over buffer (Cy3 cluster intensity, sum of 5 cycles each) (fold (ratio)); higher = stronger signal-on switching upon ATP binding; sequences stand for … in TCGTCGGCAGCGTCAGATGTGTATAAGAGACAGTTTTTTTTTTTTTTTTTTTTTTTTT…TC
Conditions: aptamer strand: ATP DNA aptamer (quencher-CACCTGGGGGAGTATTGCGGAGGAAGG + anchor), 100 nM annealed; ATP concentration: 500 uM; one replicate
Summary of the method: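 Imaging in selection buffer was followed by imaging after 15 min with 500 uM ATP at 22 °C, for Cy3-labelled switching-strand clusters annealed to 100 nM quencher-labelled ATP aptamer on a modified Illumina MiSeq flow-cell. Five of these buffer/ATP cycles ran, separated by NaOH stripping and re-annealing. The fluorescence ratio per cluster is summed target-cycle over summed buffer-cycle Cy3 intensity, averaged per switch-domain sequence; clusters outside 100-1000 RFU were removed.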
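Note: ATP exposure 15 min at 22 °C before imaging.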

Sequence | switch fluorescence ratio
TGATGCAGCC | 1.06
ATAACCTCAT | 0.989
TGTCTGATTT | 1
GCCTTGGTCG | 1.03
TTGCTCGAGA | 0.953
TCGTTAAGGA | 0.996
GTCTCATATG | 0.977
GGTGTGTCCG | 1.03
CAGGTCGCTG | 0.994
TGAACGGTTT | 1.01
CGCTGCCTGG | 1.02
TCAAATGGGT | 0.991
TCCTCGGTTC | 1.9
AGGGTTATCC | 1.06
TCATTATTTT | 1.13
TTCGCGGGAC | 1.49
ACAGCGCTGT | 1.02
CATCAATTTT | 1
GTATCATGAC | 1.01
ATCTCTCGGA | 0.967
TTTATACG | 1
TGCGATACTG | 1.78
ATCCTCGAAG | 1.01

Sequence | switch fluorescence ratio
AGGTAAACAA | 0.964
ACGGAGAGC | 1.09
GTACCTGCAA | 1.7
AAACCCGGCG | 1
GACTTCGGG | 0.957
GAGCCGGCAG | 1.06
GAAAGACGTG | 0.982
ACGGGAGATA | 0.999
GCGCGAAGGT | 1.04
TACATCCGTT | 1.04
TGAACCCACC | 1.09
AGGCCATTTA | 1
GGTAACGGAC | 1.33
TGCTGATACA | 1.04
GCCTTACCA | 1.04
TCGATTGTCG | 1.02
CCCGGGTAAT | 1.13
AGTGTGTGTA | 1.01
ACCTTCCGAG | 3.7
TTAAATAATG | 1.01
TCCAGTTACG | 0.983
TATGCTTTTA | 0.976
GCCGTAGTTT | 1.03

Sequence | switch fluorescence ratio
ATATGTACA | 1.03
CAAGATTAGC | 0.978
GCCGATGTCG | 0.986
TAACAACGGT | 1.03
ATCGCGCGCT | 1.02
CGCAATTGAT | 3.25
TTTGTACTCT | 0.947
CGGGATCTTG | 0.967
TTCCGAGTAG | 4.01
CTCTACCGGT | 0.976
CTCCTGGGTT | 1.05
CTAGTAGTTT | 0.988
CTCTCGCCTA | 1.16
ATATTCTGAT | 0.962
TAATCTTGGA | 0.973
ATTGAGGTA | 0.971
GGTGATTGTT | 1.05
GATCGAGGAG | 1.02
ACCATTTTGT | 1.02
AAGCTGCAGC | 0.974
GTTATGGTG | 0.987
CTGTAAATGG | 1.05
AGCCCGCACA | 2.31

Sequence | switch fluorescence ratio
ATCGGTGAGT | 0.978
CTTATAAAGG | 0.998
TAATTCCGGA | 1.03
AAAGATAATA | 1.04
CGACGGGGAA | 1.06
ATGGAAAAAT | 1.06
CCGAATAGTG | 1.08
AATGTGGAGC | 0.993
GGGCAGCAAC | 1.13
GGGATCATAT | 1.04
AATGTGAGTA | 0.97
TCGGCATGCG | 0.953
CATGATATAA | 0.97
GCCGCTCTTA | 1.01
CGATGGCACC | 1.26
AGAGGAGATG | 1.01
TAGGGTAGTA | 1.01
TGCGAGGATT | 1
CTTACTCGAC | 1.32
TGACGTTGCA | 1.03
GGGCATGGAT | 0.976
AGAGTGGGAG | 0.968
CTCACGTCGA | 1.3

Sequence | switch fluorescence ratio
CAAACAATCG | 0.958
ACGGAACCTT | 1.29
TAGACTGGG | 0.96
GTTTTAAGCG | 0.944
GACTCATTTC | 1.17
TGGGTGGAAA | 0.987
TACACATACC | 1.53
GGCCCTACTT | 1.01
ATAGATGAAA | 0.954
GTCGGTGGGC | 0.982
CGGATAGCAT | 1.13
GGCAGGGGCG | 0.971
GAGCAAGTAA | 1.25
TCTACTAGAC | 1.23
GTTTAAGGC | 0.892
CGTGAGACAC | 1.02
AGTGGGGGCT | 0.939
TTGAAGCGA | 1.6
TAATTGCGTT | 1.02
AAGATTTAAT | 0.96
TAAAAAAGCA | 1.15
CTTCCTGGGG | 1.3
TGTCCCCGCC | 1.08

Sequence | switch fluorescence ratio
ATTATATTAG | 1.05
CACGTGGATT | 1.04
ATAGCTCA | 1.07
CATTGACTCA | 1.02
GGATGTTACG | 1.01
TTTGCCCGGA | 1.01
GCGTAGCTTA | 0.991
ATTGGATATC | 1.01
GCCTCATCCA | 1.03
GGACTCTGCC | 1.11
CATGTCGTTC | 1.02
ATCGGGCGGA | 1.04
TAGGAACATT | 1.03
CCATGAATAT | 1.02
ATTTTGCTTG | 1.03
AAAAATCTTC | 0.975
CTAGGTGTTC | 1.09
TGGATACCCG | 0.999
AATTGCGGTG | 0.966
CTAACCGTGC | 1.35
GGGCAAGCTA | 0.961
AATATGTGT | 0.982
TATGTATCT | 1.01

Sequence | switch fluorescence ratio
CTCTGGCGC | 1.14
GGCATGTCCA | 1.04
GATCGTTGAG | 0.966
TCTTGCGTAG | 1.03
ATACTAGGTA | 1.03
CATCTAGGCG | 0.984
AGCCGGAGGA | 0.987
ATGAGGCGGA | 0.943
CATGTTTACA | 0.976
GGCTATTACA | 1.02
TGTCCCGGCA | 1.05
ACTCTCTAGG | 1.57
GCAGATTAGT | 0.944
AGGGAATTGC | 1.01
CAAGAGATTT | 0.978
CATGAACCTC | 1
TCCGAGACG | 1.33
CTCTGACTTT | 0.986
TAGTGTTGTT | 0.945
